From PubChem BioAssay AID686979 (National Center for Advancing Translational Sciences (NCATS), 2013)
Hit rate of the full screen: of about 420,000 compounds, about 50,000 (12%) were called active. The inconclusive results got no clear call from the source; some entries with a clear call stand among them for comparison. Calls follow the shape of the dose curve; as a rule, active = well fitted inhibition curve with a large enough effect; inconclusive = small, poorly fitted or top-dose-only effect; inactive = flat fitted curve, though single readings scatter. Potencies of inconclusive entries are doubtful fits and often do not repeat.

test: qHTS for Inhibitors of human tyrosyl-DNA phosphodiesterase 1 (TDP1): qHTS in cells in presence of CPT; conditions: chicken DT40 Tdp1-/-;hTDP1 cells + 20 nM CPT, ATP luminescence, 48 h; activity change, negative = growth inhibition: at 46.2 µM (top of the series) unless noted; also: nearly all actives have a fitted effect of over 55% in size
How it was run: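 Cell growth measured by CellTiter-Glo luminescence after a minimum 48 h, 37 C compound exposure with 20 nM CPT in Tdp1-knockout DT40 cells stably expressing hTDP1, seeded 400/well; qHTS titration format.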
% is scaled to controls: 0 for no effect and ±100 for the full control effect; potency is read from the fitted curve at half-maximal effect; tags tell the direction and shape of the fitted curve.

Row | Compound | Potency | activity change, negative = growth inhibition
1 | O=C(Nc1ccc(Cl)cc1)N1CCC(CO)(Cc2ccccc2)CC1 | inconclusive: 14.6 µM [inhibitor, partial curve] | –
2 | Cc1ccc2sc(-c3ccc(NC(=O)/C=C\C(=O)O)cc3)nc2c1 | – | inactive: 3.41%
3 | CC1CCc2nc(NC(=O)c3ccc(S(=O)(=O)N4CCCc5ccccc54)cc3)sc2C1 (stereo not given) | – | inconclusive: -37.2% [inhibitor]
4 | Cc1ccc(C(C(=O)NC2CCCC2)N(C(=O)Cc2cccs2)c2ccc3c(c2)OCCO3)cc1 (stereo not given) | inconclusive: 11.6 µM [inhibitor, partial curve] | –
5 | CC(C)(C)C1CCc2nc(NC(=O)COc3ccccc3[N+](=O)[O-])sc2C1 (stereo not given) | active: 16.4 µM | –
6 | COc1ccc2c(CNC3CCCC3)c(C(=O)O)n(Cc3ccccc3C)c2c1 | inconclusive: 29.1 µM [inhibitor, single point] | –
7 | CCc1nn2c(=O)cc(COC(=O)c3cccc(NC(=O)c4ccccc4C)c3)nc2s1 | active: 20.6 µM | –
8 | CCOC(=O)CSc1nc2c(sc3ccccc32)c(=O)n1CCCN1CCOCC1 | inconclusive: 29.1 µM [inhibitor, single point] | –
9 | CC(=O)Nc1ccc(C(=O)OCC(=O)Nc2ccc(N3CCOCC3)cc2)cc1 | – | inactive: -1.2%
10 | CCc1ccc(OCC(=O)Nc2ccc3[nH]ncc3c2)cc1 | inconclusive: 20.6 µM [inhibitor, single point] | –
11 | COCCCNC(=O)CSc1nc2cc3c(cc2c(=O)n1CCCCCC(=O)NCCc1ccc(OC)c(OC)c1)OCO3 | – | inactive: 11.8%
12 | C(=C\c1ccccc1)/CSc1nnc(-c2cccnc2)o1 | – | inactive: 5.66%
13 | COc1cccc(N=Nc2ccc3cccnc3c2O)c1 | active: 0.58 µM | –
14 | CN(C)CCCN(C(=O)c1cc2ccccc2oc1=O)c1nc2ccc(F)cc2s1 | – | inactive: -20.4%
15 | COc1ccc(C(=O)NNC(=O)c2cccc3ccccc23)cc1 | – | inactive: -5.61%
16 | O=C(CN1C(=O)NC2(CCCCC2)C1=O)Nc1cc(C(F)(F)F)ccc1N1CCOCC1 | inconclusive: 20.6 µM [inhibitor, single point] | –
17 | CC(=O)C1=C(O)C(=O)N(c2ccc(Br)cc2)C1c1cccc([N+](=O)[O-])c1 (stereo not given) | – | inactive: -0.336%
18 | COc1cccc(C2SCC(=O)N2c2ccc(C)cc2)c1OC (stereo not given) | inconclusive: 18.4 µM [inhibitor, single point] | –
19 | COc1ccc(Nc2nc(-c3cccc(OC)c3O)nc3ccccc23)cc1 | inconclusive: 20.6 µM [inhibitor, single point] | –
20 | CCC(=O)Nc1ccc(S(=O)(=O)Nc2cccc(C)c2)cc1OC | inconclusive: 10.3 µM [inhibitor, partial curve] | –
21 | CC(C)Cc1nc(N2CCN(C(=O)c3ccco3)CC2)c(C#N)c2c1CCCC2 | active: 23.1 µM | –
22 | CCOc1ccccc1CN1CCNC(=O)C1CC(=O)NC1CCCCCC1 (stereo not given) | inconclusive: 25.9 µM [inhibitor, single point] | –
23 | O=C(CNC(=S)N(Cc1ccccc1)Cc1cccnc1)NC1CCCCC1 | – | inactive: -6.59%

Row | Compound | Potency | activity change, negative = growth inhibition
24 | O=C(CCc1ccccc1)NNC(=S)NCc1ccc(Cl)cc1 | inconclusive: 29.1 µM [inhibitor, single point] | –
25 | COc1cccc(C(=O)C2CCCN(Cc3cn[nH]c3C3CCCCC3)C2)c1 (stereo not given) | inconclusive: 29.1 µM [inhibitor, single point] | –
26 | CCOC(=O)c1ccc(NC(=S)NN)cc1 | – | inactive: -26.9%
27 | CC1=C(C(=O)N(C(C)C)C(C)C)CC(CC(=O)NCC2CCCCC2)C(=O)N1Cc1ccccc1 (stereo not given) | inconclusive: 29.1 µM [inhibitor, single point] | –
28 | CC(=O)c1cccc(NC(=O)C2Cc3c(-c4ccco4)ccnc3O2)c1 (stereo not given) | inconclusive: 16.4 µM [inhibitor, partial curve, poor fit] | –
29 | CCOc1ccc(NS(=O)(=O)c2ccc(-c3coc(C)n3)cc2)cc1 | inconclusive: 29.1 µM [inhibitor, single point] | –
30 | CC1=C(c2ccc(C)cc2)S(=O)(=O)N(Cc2ccc(C(=O)NCc3ccccc3)cc2)C1=O | inconclusive: 20.6 µM [inhibitor, single point] | –
31 | CC(C)CN(CC(C)C)S(=O)(=O)N1CCC(C(=O)NCc2ccc3c(c2)OCO3)CC1 | – | inactive: -19.9%
32 | O=c1[nH]cnc2nc(-c3ccccc3)c(-c3ccccc3)nc12 | active: 1.46 µM | –
33 | O=C(c1[nH]c(C(F)(F)F)nc1-c1ccccc1)N1CCN(c2ccncc2)CC1 | – | inactive: 3.02%
34 | CSc1nnc2c(n1)[nH]c1c(C)cccc12 | – | inconclusive: -33.3% [inhibitor]
35 | CC(C)NCC1CCc2cc(CO)c([N+](=O)[O-])cc2N1 (stereo not given) | – | inconclusive: -30.2% [inhibitor] [at 21.1 µM]
36 | O=C(O)c1cccc(CN2C(=O)S/C(=C/c3cccc([N+](=O)[O-])c3)C2=O)c1 | inconclusive: 29.1 µM [inhibitor, single point] | –
37 | CCOC(=O)[C@]12CCCC=C1N(Cc1ccc(Cl)cc1Cl)C(=O)[C@H](CC(=O)NCCC(C)C)C2 | inconclusive: 23.1 µM [inhibitor, single point] | –
38 | O=C(Nc1cccc(Cl)c1)Nc1cc(S(=O)(=O)N2CCCCC2)ccc1Cl | inconclusive: 25.9 µM [inhibitor, single point] | –
39 | CC(C)(C)OC(=O)N(Cc1ccccc1)Cc1ccccc1OCc1cccc(NC(=O)C2CC2)c1 | inconclusive: 29.1 µM [inhibitor, single point] | –
40 | COCc1nc2ccccc2n1Cc1ccc(Br)cc1 | – | inactive: -20.9%
41 | Cc1ccccc1C(=O)Nc1sc(C)c(C)c1C(=O)c1ccccc1 | inconclusive: 18.4 µM [inhibitor, single point] | –
42 | O=C(Nc1cc(C(F)(F)F)ccc1Cl)c1noc2c1CCCCC2 | – | inconclusive: -30.7% [inhibitor]
43 | Cc1[nH]c2ccccc2c1C(=O)CN1C(=O)NC2(CC(C)CC(C)(C)C2)C1=O (stereo not given) | active: 14.6 µM | –
44 | COc1ccc(C2CC(c3cccc(Cl)c3)n3nc(N)nc3N2)cc1 (stereo not given) | inconclusive: 13 µM [inhibitor, partial curve] | –
45 | COc1ccc(C2/C=C\CN(S(=O)(=O)c3ccc4ccccc4c3)CC(=O)N2Cc2ccc(F)cc2)cc1 (stereo not given) | inconclusive: 29.1 µM [inhibitor, single point] | –
